# Reference: ChEMBL document CHEMBL1201862, “PubChem BioAssay data set” (2004)
# Test system: NCI-H322M
# Assay: NCI anticancer screen, dose series, 48 h
row,SMILES,GI50
1,Cc1cccc2nc3n(c12)C(=O)c1ccccc1-3,inactive: > 100 µM
2,[O-][S+](c1ccc(Cl)cc1)c1ccccc1C1=NCCN1 (stereo not drawn),inactive: > 100 µM
3,N#Cc1ccc(OC(=O)c2ccc(NC(=N)N)cc2)cc1.c1ccncc1,inactive: > 100 µM
4,Cc1ncc(CSc2ccccc2N)c(CO)c1O,inactive: > 100 µM
5,CN(CCNC(=O)c1cn(C)c2c1ccc1ccccc12)CCNC(=O)c1cn(C)c2c1ccc1ccccc12,inactive: 3.77 µM
6,Cc1ccc2nc(C(=O)O)c(=O)[nH]c2c1,inactive: > 100 µM
7,Cc1cc2c3c([nH]c2c2ccnc(C)c12)CCCC3,inactive: 3.36 µM
8,COc1ccc2c(c1)CC[C@@H]1C2CC[C@]2(C)C(=O)N(N)C(=O)CC12 (stereo partly drawn),inactive: > 100 µM
9,C\C=C/C=C/C=C/C(=O)O,inactive: > 100 µM
10,Cn1c(=O)[nH]c2sc3c(c2c1=N)CCCC3,inactive: > 75 µM
11,CCCC(CCC(N)=O)(CCC(N)=O)[N+](=O)[O-],inactive: > 100 µM
12,CCNC(=O)Nc1cccc(C)n1,inactive: > 100 µM
13,COc1cc2cnc3c4cc(O)ccc4ccc3c2cc1OC,inactive: > 100 µM
14,COCCNC(=O)C1C(=O)N(CCOC)C(=O)/C1=N/N (stereo not drawn),inactive: > 100 µM
15,CCCC(=O)c1c(NOC2OC(COC(C)=O)C(OC(C)=O)C(OC(C)=O)C2OC(C)=O)nc(OC)n(C)c1=O (stereo not drawn),inactive: > 100 µM
16,O=[N+]([O-])/C(C(Cl)=C(Cl)Cl)=C(/Sc1ccccc1)N1CCOCC1,inactive: 16.7 µM
17,Cc1cc(N(CCC#N)CCC#N)ccc1/C=C(/NC(=O)/C=C/c1ccccc1)C(N)=O,inactive: > 100 µM
18,Clc1ccccc1C(SCc1ccccc1)SCc1ccccc1,inactive: > 100 µM
19,COc1ccc(Nc2c(C#N)c3n(c4ccccc24)c2ccccc2[n+]3C)cc1OC,inactive: 3.13 µM
20,CC(=O)OC1COC(n2c(-c3ccc(Cl)cc3)cc(-c3ccccc3)c(C#N)c2=S)C(OC(C)=O)C1OC(C)=O (stereo not drawn),inactive: 29.6 µM
21,CCN(CC)c1ccc(/N=N/c2ccc(-c3nc4cccnc4s3)cc2)cc1,inactive: > 100 µM
22,CCCCCCCCOCC(O)COC(C)C (stereo not drawn),inactive: > 100 µM
23,CCCCN(CC)CC(C(C)=O)c1c(O)c2ccccc2oc1=O (stereo not drawn),inactive: > 100 µM
24,C=C1CC[C@H](O)C(C)(C)[C@@H]1CC/C(C)=C/CC/C=C(\C)CC/C=C(\C)CCC=C(C)C,inactive: > 100 µM

row,SMILES,GI50
1,COC(=N)/C(=C1\OC(=N)C(c2ccc(Cl)cc2)=C1O)c1ccc(Cl)cc1,inactive: > 100 µM
2,COc1cc(C)c2c(c1)CN1CN2Cc2cc(OC)cc(C)c21,inactive: > 100 µM
3,O=C(Nc1ccccc1)c1cc(S(=O)(=O)Nc2nc3cccnc3[nH]2)c(SSc2cc(Cl)c(C(=O)Nc3ccccc3)cc2S(=O)(=O)Nc2nc3cccnc3[nH]2)cc1Cl,inactive: > 100 µM
4,C/C=C\C(CC(=O)NCCC1CN(C(=O)c2ccccc2)c2ccccc21)CC(=O)OC (stereo not drawn),inactive: > 100 µM
5,CCOC(=O)NN1C(=O)C(=P(c2ccccc2)(c2ccccc2)c2ccccc2)C(C(=O)OC)=C1C,inactive: > 100 µM
6,COC(=O)c1c(O)ccc2c1c1c(n2Cc2cc(OC)cc(OC)c2)C(=O)c2ccccc2C1,inactive: 84.3 µM
7,O=C(NCCCCNCCCNC(=O)C(F)(F)F)C(F)(F)F,inactive: > 100 µM
8,O=C(Cc1ccccc1)NS(=O)(=O)c1ccccc1,inactive: > 100 µM
9,O=C1C=CC2(C=C1)C[C@H](NC(=O)OCc1ccccc1)C(=O)O2,inactive: > 59.2 µM
10,O=C(O)c1ccc(/N=C(\C(=N\c2ccc(C(=O)O)cc2)c2ccccc2)c2ccccc2)cc1,inactive: > 100 µM
11,Cc1ccc(-c2n[nH]c(CC#N)n2)cc1,inactive: 86.1 µM
12,CC1CCCc2c(-c3ccc(Cl)cc3)nc(N)c(C#N)c21 (stereo not drawn),inactive: 57.5 µM
13,CCOC(=O)N1N(c2ccccc2)C(=O)C1(c1ccccc1)c1ccccc1,inactive: > 100 µM
14,O=c1nc2ccc3sc4ccccc4c(=O)c3n2c(=O)[nH]1,inactive: 74.1 µM
15,CCN1C(=O)C(N=[N+]=[N-])(c2ccccc2)C(=O)c2ccccc21 (stereo not drawn),inactive: > 100 µM
16,O=c1[nH]nc(-c2cccc(Br)c2)[nH]1,inactive: > 100 µM
17,N/C(=N\OC(=O)NC(Cl)=C(Cl)Cl)c1cc(C(F)(F)F)cc(C(F)(F)F)c1,inactive: 12.4 µM
18,CCOP(=O)(OCC)/C(C#N)=C/c1cnc(C)[nH]1,inactive: > 100 µM
19,C[N+](C)(C)CC(=O)N/N=C(/Cc1nc2ccc(Cl)cc2nc1O)C1=NS(=O)(=O)c2cc(S(N)(=O)=O)c(Cl)cc2N1,inactive: > 100 µM
20,Cc1c2ccnc(C(N)=O)c2c(C)c2c1[nH]c1ccccc12,inactive: 5.45 µM
21,CSC(=S)c1ccc(C(=S)SC)cc1,inactive: > 100 µM
22,C=C=C(C(=O)OC)[S+]([O-])c1ccc([N+](=O)[O-])cc1[N+](=O)[O-] (stereo not drawn),inactive: > 74.5 µM
23,[N-]=[N+]=NC(c1cn(C2CC(O)C(CO)O2)c(=O)[nH]c1=O)C(Br)I (stereo not drawn),inactive: > 100 µM
24,Brc1c(C#CCC2CCCCC2)ccc(C#CCC2CCCCC2)c1Br,inactive: > 100 µM

#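 The compound was tested at five concentrations on cells cultured in 96-well plates, with a 48-hour exposure period. Abbreviation: GI50, concentration required for 50% inhibition of growth.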 Calls of active or inactive are those of the source. Rule as the data show it: active = GI50 up to about 1.1 µM and inactive = higher.
